From article PMC4667695
No constants are given. Whether binding was seen depends on the method and setting. In cells and extracts the contact can be indirect. Some entries that bind do so weakly or less than the wild type. Sequences can lack the tags named with a protein.

Protein sequences, listed by entry. Tags and fused reporters are not part of them.
UniProt P49597: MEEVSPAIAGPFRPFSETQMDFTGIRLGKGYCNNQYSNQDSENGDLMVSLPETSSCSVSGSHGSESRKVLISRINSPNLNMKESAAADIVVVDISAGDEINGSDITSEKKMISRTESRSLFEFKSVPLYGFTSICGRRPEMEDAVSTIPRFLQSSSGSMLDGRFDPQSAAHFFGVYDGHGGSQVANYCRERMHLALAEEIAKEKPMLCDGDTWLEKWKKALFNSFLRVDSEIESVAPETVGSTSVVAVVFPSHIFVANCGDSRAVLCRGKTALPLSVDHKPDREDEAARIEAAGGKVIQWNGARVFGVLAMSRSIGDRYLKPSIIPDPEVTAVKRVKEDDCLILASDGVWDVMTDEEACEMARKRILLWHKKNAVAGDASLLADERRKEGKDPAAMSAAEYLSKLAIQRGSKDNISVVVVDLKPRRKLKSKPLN
UniProt O04719: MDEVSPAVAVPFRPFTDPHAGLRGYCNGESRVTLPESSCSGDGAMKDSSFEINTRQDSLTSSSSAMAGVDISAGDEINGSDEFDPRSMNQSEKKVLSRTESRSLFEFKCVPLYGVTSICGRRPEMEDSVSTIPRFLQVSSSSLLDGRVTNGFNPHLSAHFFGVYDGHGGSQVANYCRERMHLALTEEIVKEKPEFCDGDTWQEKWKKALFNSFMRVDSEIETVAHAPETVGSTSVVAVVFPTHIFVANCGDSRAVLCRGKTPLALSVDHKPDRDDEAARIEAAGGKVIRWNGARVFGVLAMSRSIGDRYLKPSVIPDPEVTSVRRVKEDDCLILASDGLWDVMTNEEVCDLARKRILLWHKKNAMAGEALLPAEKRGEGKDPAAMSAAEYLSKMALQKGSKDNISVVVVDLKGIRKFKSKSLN

T1: AHG1 (Arabidopsis thaliana) (UniProt Q9FLI3)
T1 sequence: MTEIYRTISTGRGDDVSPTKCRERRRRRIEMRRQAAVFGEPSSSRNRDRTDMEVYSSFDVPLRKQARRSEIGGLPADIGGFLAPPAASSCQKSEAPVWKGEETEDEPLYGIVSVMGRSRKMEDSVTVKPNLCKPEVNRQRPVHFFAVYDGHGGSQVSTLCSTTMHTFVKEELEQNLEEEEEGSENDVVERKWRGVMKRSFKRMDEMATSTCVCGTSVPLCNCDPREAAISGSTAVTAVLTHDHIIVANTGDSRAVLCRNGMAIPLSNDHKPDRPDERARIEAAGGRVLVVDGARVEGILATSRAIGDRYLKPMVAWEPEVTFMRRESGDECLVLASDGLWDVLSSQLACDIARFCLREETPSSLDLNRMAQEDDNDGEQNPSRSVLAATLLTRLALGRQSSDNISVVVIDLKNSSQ

T2: HAB2 (Arabidopsis thaliana) (UniProt Q9LNP9)
T2 sequence: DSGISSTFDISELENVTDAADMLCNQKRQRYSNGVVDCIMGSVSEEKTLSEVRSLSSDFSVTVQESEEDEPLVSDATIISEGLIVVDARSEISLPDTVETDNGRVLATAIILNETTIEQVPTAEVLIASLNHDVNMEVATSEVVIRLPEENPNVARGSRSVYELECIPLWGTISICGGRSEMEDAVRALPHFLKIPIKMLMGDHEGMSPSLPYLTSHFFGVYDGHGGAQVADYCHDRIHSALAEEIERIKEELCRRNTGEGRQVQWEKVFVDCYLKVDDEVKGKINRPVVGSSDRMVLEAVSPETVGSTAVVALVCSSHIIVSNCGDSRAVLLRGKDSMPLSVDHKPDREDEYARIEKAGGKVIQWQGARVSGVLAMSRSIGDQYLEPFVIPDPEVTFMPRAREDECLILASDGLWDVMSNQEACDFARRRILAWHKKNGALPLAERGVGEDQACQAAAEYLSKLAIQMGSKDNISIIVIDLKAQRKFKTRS

T3: AHG3 (Arabidopsis thaliana) (UniProt P49598)
T3 sequence: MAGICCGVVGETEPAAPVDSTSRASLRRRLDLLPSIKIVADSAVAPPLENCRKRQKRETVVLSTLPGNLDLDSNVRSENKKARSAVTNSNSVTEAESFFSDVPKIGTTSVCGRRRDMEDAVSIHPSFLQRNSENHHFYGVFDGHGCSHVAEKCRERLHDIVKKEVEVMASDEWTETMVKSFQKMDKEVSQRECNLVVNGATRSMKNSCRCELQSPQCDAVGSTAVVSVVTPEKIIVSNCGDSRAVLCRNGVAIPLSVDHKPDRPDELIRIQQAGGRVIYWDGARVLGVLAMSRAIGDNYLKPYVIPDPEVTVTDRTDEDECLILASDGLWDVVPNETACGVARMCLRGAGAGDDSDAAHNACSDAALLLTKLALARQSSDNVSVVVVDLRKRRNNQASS

B1: PUB13-Flag (enzyme, UniProt Q9SNC6 1-660)
chain: MEEEKASAAQSLIDVVNEIAAISDYRITVKKLCYNLARRLKLLVPMFEEIRESNEPISEDTLKTLMNLKEAMCSAKDYLKFCSQGSKIYLVMEREQVTSKLMEVSVKLEQSLSQIPYEELDISDEVREQVELVLSQFRRAKGRVDVSDDELYEDLQSLCNKSSDVDAYQPVLERVAKKLHLMEIPDLAQESVALHEMVASSGGDVGENIEEMAMVLKMIKDFVQTEDDNGEEQKVGVNSRSNGQTSTAASQKIPVIPDDFRCPISLEMMRDPVIVSSGQTYERTCIEKWIEGGHSTCPKTQQALTSTTLTPNYVLRSLIAQWCEANDIEPPKPPSSLRPRKVSSFSSPAEANKIEDLMWRLAYGNPEDQRSAAGEIRLLAKRNADNRVAIAEAGAIPLLVGLLSTPDSRIQEHSVTALLNLSICENNKGAIVSAGAIPGIVQVLKKGSMEARENAAATLFSLSVIDENKVTIGALGAIPPLVVLLNEGTQRGKKDAATALFNLCIYQGNKGKAIRAGVIPTLTRLLTEPGSGMVDEALAILAILSSHPEGKAIIGSSDAVPSLVEFIRTGSPRNRENAAAVLVHLCSGDPQHLVEAQKLGLMGPLIDLAGNGTDRGKRKAAQLLERISRLAEQQKETAVSQPEEEAEPTHPESTTEAADT
B2: PUB12-nLUC (enzyme, UniProt Q9ZV31 1-654)
chain: MAKSEKHKLAQTLIDSINEIASISDSVTPMKKHCANLSRRLSLLLPMLEEIRDNQESSSEVVNALLSVKQSLLHAKDLLSFVSHVSKIYLVLERDQVMVKFQKVTSLLEQALSIIPYENLEISDELKEQVELVLVQLRRSLGKRGGDVYDDELYKDVLSLYSGRGSVMESDMVRRVAEKLQLMTITDLTQESLALLDMVSSSGGDDPGESFEKMSMVLKKIKDFVQTYNPNLDDAPLRLKSSLPKSRDDDRDMLIPPEEFRCPISLELMTDPVIVSSGQTYERECIKKWLEGGHLTCPKTQETLTSDIMTPNYVLRSLIAQWCESNGIEPPKRPNISQPSSKASSSSSAPDDEHNKIEELLLKLTSQQPEDRRSAAGEIRLLAKQNNHNRVAIAASGAIPLLVNLLTISNDSRTQEHAVTSILNLSICQENKGKIVYSSGAVPGIVHVLQKGSMEARENAAATLFSLSVIDENKVTIGAAGAIPPLVTLLSEGSQRGKKDAATALFNLCIFQGNKGKAVRAGLVPVLMRLLTEPESGMVDESLSILAILSSHPDGKSEVGAADAVPVLVDFIRSGSPRNKENSAAVLVHLCSWNQQHLIEAQKLGIMDLLIEMAENGTDRGKRKAAQLLNRFSRFNDQQKQHSGLGLEDQISLI
B3: PUB13-nLUC (enzyme, UniProt Q9SNC6 1-660)
chain: B1 chain
B4: PUB12-Flag (enzyme, UniProt Q9ZV31 1-654)
chain: B2 chain
B5: PUB9-Flag (enzyme, UniProt Q9SRT0 1-460)
chain: MAKTGVFDSDPTAIAKAKELKREMKKLLIKIDDEDDLGVQTIDQLQDALSALREATMRKMAKSSSLEMLETVSCPEEFRCPLSNELMRDPVVLASGQTYDKLFIQKWLSSGNRTCPKTQQVLPHTALTPNLLIREMISKWCKKNGLETKSQYHPNLVNEDETVTRSDREIFNSLLCKVSSSNLQDQKSAAKELRLLTRKGTEFRALFGESPDEITRLVNPLLHGSNPDEKLQEDVVTTLLNISIHDDSNKKLVCENPNVIPLLIDALRRGTVATRSNAAAAIFTLSALDSNKVLIGKSGILKPLIDLLEEGNPLAIKDVAAAIFTLCIAHENRSRAVRDGAVRVLGKKISNGLYVDELLAILAMLVTHWKAVEELGELGGVSWLLKITRESECKRNKENAIVILHTICFSDRTKWKEIKEEENAHGTITKLSREGTSRAQRKANGILDRLRKAMNLTHTA

Key:
[1] = molecular target: T1, AHG1 (Arabidopsis thaliana); experiment: co-IP; Arabidopsis protoplasts co-transfected with Myc- and Flag-tagged constructs, 14-16 h; lysate (10 mM HEPES pH 7.5, 100 mM NaCl, 1 mM EDTA, 10% glycerol, 0.5% Triton X-100) on anti-c-Myc agarose 2 h at 4 °C; blots with anti-Flag and anti-Myc
[2] = molecular target: T2, HAB2 (Arabidopsis thaliana); experiment: as above
[3] = molecular target: T3, AHG3 (Arabidopsis thaliana); experiment: as above
[4] = molecular target: ABI1-Myc (Arabidopsis thaliana) (UniProt P49597); experiment: as above
[5] = molecular target: ABI2-Myc (Arabidopsis thaliana) (UniProt O04719); experiment: as above
[6] = molecular target: native ABI1 (Arabidopsis thaliana (endogenous in plants)) (UniProt P49597); experiment: co-IP; native ABI1 and PUB13-Flag from transgenic plants expressing Pro35S:PUB13-Flag (Supplementary Fig. 5)
[7] = molecular target: cLUC-ABI1 (Arabidopsis thaliana) (UniProt P49597); experiment: split reporter; firefly luciferase complementation imaging (LCI); cLUC and nLUC fusions co-expressed in Nicotiana benthamiana leaves by Agrobacterium infiltration, imaged after 3 days with 1 mM luciferin

Binder | binding [1] | binding [2] | binding [3] | binding [4] | binding [5] | binding [6] | binding [7]
B1 | no binding | no binding | no binding | binds | no binding | binds | –
B2 | – | – | – | – | – | – | binds
B3 | – | – | – | – | – | – | binds
B4 | no binding | no binding | no binding | binds | no binding | – | –
B5 | – | – | – | no binding | – | – | –
